# From the supplement of paper PMC8728848
# This is one part of the list.
# B1: CLECb-Precomplexed (Mus musculus), P43025 (protein)
# chain: MAKNGLVLCILVVSLLLDQTDGYPSRMKARKHSKRRVKAKDDDLKSQVEKLWREVNALKEMQALQTVCLRGTKVHKKCYLASEGLKHYHEANEDCISKGGTLVVPRNSDEINALRDYGKRSLPGVNDFWLGINDMVTEGKFLDVHGFAVSFLNWDRAQPSGGKRENCVLFSQSAQGKWSDEACRSSKRYICEFIIPTRTRPLEQKLISEEDLAANDILDYKDDDDKV
# Tests used:
# Experiment in all cases: glycan array binding signal (z-score within array); higher = stronger binding
# Conditions in all cases: glycan notation: IUPAC condensed, linker removed
# [1] = target: Neu5Ac(a2-6)Gal(b1-4)GlcNAc(b1-2)Man(a1-3)[Man(a1-6)]Man(b1-4)GlcNAc(b1-4)GlcNAc
# In short: (§1)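 The Consortium for Functional Glycomics database supplied 3228 glycan arrays, of which those lacking an available protein sequence were dropped. The binding signal, a within-array Z-score, was averaged across arrays of the same protein sequence and across linkers. Negative scores can be read as non-binding.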
# [2] = target: Neu5Ac(a2-6)Gal(b1-4)GlcNAc(b1-2)Man(a1-3)[Neu5Ac(a2-3)Gal(b1-4)GlcNAc(b1-2)Man(a1-6)]Man(b1-4)GlcNAc(b1-4)GlcNAc
# In short: as §1
# [3] = target: Neu5Ac(a2-6)Gal(b1-4)GlcNAc(b1-2)Man(a1-3)[Neu5Ac(a2-6)Gal(b1-4)GlcNAc(b1-2)Man(a1-6)]Man(b1-4)GlcNAc(b1-4)GlcNAc
# In short: as §1
# [4] = target: Neu5Ac(a2-6)Gal(b1-4)GlcNAc(b1-2)Man(a1-3)[Neu5Ac(a2-6)Gal(b1-4)GlcNAc(b1-2)Man(a1-6)]Man(b1-4)GlcNAc(b1-4)[Fuc(a1-6)]GlcNAc
# In short: as §1
# [5] = target: Neu5Ac(a2-6)Gal(b1-4)GlcNAc(b1-2)Man(a1-6)Man(b1-4)GlcNAc(b1-4)GlcNAc
# In short: as §1
# [6] = target: Neu5Ac(a2-6)Gal(b1-4)GlcNAc(b1-2)Man(a1-6)[Gal(b1-4)GlcNAc(b1-2)Man(a1-3)]Man(b1-4)GlcNAc(b1-4)GlcNAc
# In short: as §1
# [7] = target: Neu5Ac(a2-6)Gal(b1-4)GlcNAc(b1-2)Man(a1-6)[GlcNAc(b1-2)Man(a1-3)]Man(b1-4)GlcNAc(b1-4)GlcNAc
# In short: as §1
# [8] = target: Neu5Ac(a2-6)Gal(b1-4)GlcNAc(b1-2)Man(a1-6)[Man(a1-3)]Man(b1-4)GlcNAc(b1-4)GlcNAc
# In short: as §1
# [9] = target: Neu5Ac(a2-6)Gal(b1-4)GlcNAc(b1-2)[Neu5Ac(a2-6)Gal(b1-4)GlcNAc(b1-4)]Man(a1-3)[GlcNAc(b1-4)][Neu5Ac(a2-6)Gal(b1-4)GlcNAc(b1-2)[Neu5Ac(a2-6)Gal(b1-4)GlcNAc(b1-6)]Man(a1-6)]Man(b1-4)GlcNAc(b1-4)GlcNAc
# In short: as §1
# [10] = target: Neu5Ac(a2-6)Gal(b1-4)GlcNAc(b1-2)[Neu5Ac(a2-6)Gal(b1-4)GlcNAc(b1-4)]Man(a1-3)[GlcNAc(b1-4)][Neu5Ac(a2-6)Gal(b1-4)GlcNAc(b1-4)Man(a1-6)]Man(b1-4)GlcNAc(b1-4)GlcNAc
# In short: as §1
# [11] = target: Neu5Ac(a2-6)Gal(b1-4)GlcNAc(b1-2)[Neu5Ac(a2-6)Gal(b1-4)GlcNAc(b1-6)]Man(a1-6)[Neu5Ac(a2-6)Gal(b1-4)GlcNAc(b1-2)Man(a1-3)][GlcNAc(b1-4)]Man(b1-4)GlcNAc(b1-4)GlcNAc
# In short: as §1
# [12] = target: Neu5Ac(a2-6)Gal(b1-4)GlcNAc(b1-3)Gal(b1-3)GlcNAc
# In short: as §1
# [13] = target: Neu5Ac(a2-6)Gal(b1-4)GlcNAc(b1-3)Gal(b1-4)GlcNAc
# In short: as §1
# [14] = target: Neu5Ac(a2-6)Gal(b1-4)GlcNAc(b1-3)Gal(b1-4)GlcNAc(b1-2)Man(a1-3)[Neu5Ac(a2-6)Gal(b1-4)GlcNAc(b1-3)Gal(b1-4)GlcNAc(b1-2)Man(a1-6)]GalNAc
# In short: as §1
# [15] = target: Neu5Ac(a2-6)Gal(b1-4)GlcNAc(b1-3)Gal(b1-4)GlcNAc(b1-3)Gal(b1-4)GlcNAc
# In short: as §1
# [16] = target: Neu5Ac(a2-6)Gal(b1-4)GlcNAc(b1-3)Gal(b1-4)GlcNAc(b1-3)Gal(b1-4)GlcNAc(b1-2)Man(a1-3)[Neu5Ac(a2-6)Gal(b1-4)GlcNAc(b1-3)Gal(b1-4)GlcNAc(b1-3)Gal(b1-4)GlcNAc(b1-2)Man(a1-6)]GalNAc
# In short: as §1
# [17] = target: Neu5Ac(a2-6)Gal(b1-4)GlcNAc(b1-3)Gal(b1-4)GlcNAc(b1-3)GalNAc
# In short: as §1
# [18] = target: Neu5Ac(a2-6)Gal(b1-4)GlcNAc(b1-3)Gal(b1-4)GlcNAc(b1-3)[Neu5Ac(a2-6)Gal(b1-4)GlcNAc(b1-3)Gal(b1-4)GlcNAc(b1-6)]GalNAc
# In short: as §1
# [19] = target: Neu5Ac(a2-6)Gal(b1-4)GlcNAc(b1-3)Gal(b1-4)GlcNAc(b1-6)[Gal(b1-3)]GalNAc
# In short: as §1
# [20] = target: Neu5Ac(a2-6)Gal(b1-4)GlcNAc(b1-3)Gal(b1-4)[Fuc(a1-3)]GlcNAc(b1-3)Gal(b1-4)[Fuc(a1-3)]GlcNAc
# In short: as §1
# [21] = target: Neu5Ac(a2-6)Gal(b1-4)GlcNAc(b1-3)GalNAc
# In short: as §1
# [22] = target: Neu5Ac(a2-6)Gal(b1-4)GlcNAc(b1-3)[Neu5Ac(a2-6)Gal(b1-4)GlcNAc(b1-6)]GalNAc
# In short: as §1
# [23] = target: Neu5Ac(a2-6)Gal(b1-4)GlcNAc(b1-6)GalNAc
# In short: as §1
# [24] = target: Neu5Ac(a2-6)Gal(b1-4)GlcNAc(b1-6)[Gal(b1-3)GlcNAc(b1-3)]Gal(b1-4)Glc
# In short: as §1
# [25] = target: Neu5Ac(a2-6)Gal(b1-4)GlcNAc(b1-6)[Gal(b1-3)]GalNAc
# In short: as §1
# [26] = target: Neu5Ac(a2-6)Gal(b1-4)GlcNAc6S
# In short: as §1
# [27] = target: Neu5Ac(a2-6)GalNAc
# In short: as §1
# [28] = target: Neu5Ac(a2-6)GalNAc(b1-4)GlcNAc
# In short: as §1
# [29] = target: Neu5Ac(a2-6)GalNAc(b1-4)GlcNAc6S
# In short: as §1
# [30] = target: Neu5Ac(a2-6)GlcNAc(b1-4)GlcNAc
# In short: as §1
binder,measurement,setting,value
B1,glycan array binding signal (z-score),[1],-0.151
same,glycan array binding signal (z-score),[2],-0.03
same,glycan array binding signal (z-score),[3],-0.388
same,glycan array binding signal (z-score),[4],2.94
same,glycan array binding signal (z-score),[5],-0.084
same,glycan array binding signal (z-score),[6],0.123
same,glycan array binding signal (z-score),[7],-0.639
same,glycan array binding signal (z-score),[8],-0.366
same,glycan array binding signal (z-score),[9],-0.528
same,glycan array binding signal (z-score),[10],-0.266
same,glycan array binding signal (z-score),[11],-0.389
same,glycan array binding signal (z-score),[12],-0.423
same,glycan array binding signal (z-score),[13],-0.301
same,glycan array binding signal (z-score),[14],-0.31
same,glycan array binding signal (z-score),[15],0.109
same,glycan array binding signal (z-score),[16],3.49
same,glycan array binding signal (z-score),[17],-0.285
same,glycan array binding signal (z-score),[18],-0.368
same,glycan array binding signal (z-score),[19],-0.339
same,glycan array binding signal (z-score),[20],-0.549
same,glycan array binding signal (z-score),[21],1.18
same,glycan array binding signal (z-score),[22],-0.64
same,glycan array binding signal (z-score),[23],-0.372
same,glycan array binding signal (z-score),[24],-0.204
same,glycan array binding signal (z-score),[25],-0.007
same,glycan array binding signal (z-score),[26],0.146
same,glycan array binding signal (z-score),[27],-0.073
same,glycan array binding signal (z-score),[28],0.101
same,glycan array binding signal (z-score),[29],0.238
same,glycan array binding signal (z-score),[30],-0.392
